Test results: PMC6212790
This is one part of the list. At the low end of the ranking the order means little.

biological target: T1, GST-Rok (full length) (UniProt O34857); assay: protein binding microarray; details: Rok is a gene silencer of Bacillus subtilis; high values mean tight binding; most listed sequences are background and not binding sites; double strand, one strand shown;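 further: rank score from −0.5 (least bound) to 0.5 (best bound)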
T1 sequence: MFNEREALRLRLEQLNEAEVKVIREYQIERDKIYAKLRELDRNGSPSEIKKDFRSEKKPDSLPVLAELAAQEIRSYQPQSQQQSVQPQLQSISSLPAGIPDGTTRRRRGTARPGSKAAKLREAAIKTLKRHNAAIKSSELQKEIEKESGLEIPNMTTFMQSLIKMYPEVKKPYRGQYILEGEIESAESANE

Row | Sequence | binding signal [E-score]
1 | GAATAGAA | 0.101
2 | AGAAGGTA | 0.129
3 | ACCCATTA | 0.168
4 | AAGACCCT | -0.303
5 | AACAGTCC | -0.136
6 | ACGGTTAC | 0.00958
7 | AACATTAT | 0.278
8 | GTGAGATA | 0.106
9 | CTCCAGTC | -0.286
10 | AGGATTGA | 0.00691
11 | GGTTCAGA | -0.153
12 | GCGACACC | -0.24
13 | CTTGGTGC | -0.209
14 | AAAGGGGG | -0.255
15 | AACTCCCT | -0.0881
16 | AGTAGACA | 0.0413
17 | GAATCAAC | -0.127
18 | AGAAGAAG | -0.172
19 | ATTCTATC | 0.348
20 | GCGCACAA | 0.0572
21 | CTTATCCA | -0.143
22 | CCGTGCAA | 0.0277
23 | GTTTCCTA | 0.189
24 | CCTGGACG | -0.302
25 | AATGGTCA | 0.166

Row | Sequence | binding signal [E-score]
26 | CCCGTTGA | -0.0132
27 | GAACCGTA | 0.0996
28 | ATATATAG | 0.416
29 | CCTACTGA | 0.00999
30 | AGCAATCG | 0.0808
31 | AAGGTTAC | -0.062
32 | CACAAAGA | 0.0297
33 | CATTAGAG | 0.0735
34 | CTGGTTGC | -0.194
35 | AATGTGGC | -0.164
36 | ACGCCTAT | -0.0979
37 | CGGTCCCA | -0.229
38 | CCGACTAC | -0.28
39 | GCGCAACC | -0.0164
40 | GGCAGACC | -0.217
41 | AGTACTCG | 0.171
42 | AACTTTCT | 0.268
43 | CCCACGTA | 0.0395
44 | CACCCGGG | -0.386
45 | AGGCCCGA | -0.282
46 | AAAGCCAC | -0.106
47 | ACGGGCGA | -0.0326
48 | ACCAGTTG | 0.0478
49 | CGAATTGA | 0.0234
50 | TCGATGCA | 0.102

Row | Sequence | binding signal [E-score]
51 | CTCACCAA | -0.108
52 | ATGCCGGG | -0.213
53 | CGTCTCGC | -0.232
54 | AGACTTTC | -0.0842
55 | CTCGATGC | -0.0821
56 | AGGGCTGG | -0.33
57 | AGCATGAT | 0.178
58 | CGTCAGCC | -0.228
59 | CCCCCGCG | -0.309
60 | TAGATCGA | 0.199
61 | TATAACGA | 0.245
62 | GAATCTCA | 0.0703
63 | CTTACCGA | 0.204
64 | CGGTGTCC | -0.389
65 | GGTCATCA | -0.133
66 | CATAGCCA | -0.146
67 | AAGACAGC | -0.221
68 | AGCCGCGC | -0.28
69 | CATCCGAG | 0.091
70 | AGTTGAAA | 0.0758
71 | CATACGCG | -0.0538
72 | AAGTGCCT | -0.202
73 | CTCAAACC | -0.089
74 | CCCACCCA | -0.0202
75 | GTTCAGCA | -0.000192

Row | Sequence | binding signal [E-score]
76 | TATCGGAA | 0.146
77 | CACATTTC | 0.239
78 | GATTTACA | 0.345
79 | AGACCGCT | -0.249
80 | ACAATAGT | 0.297
81 | CACTTTGG | -0.0911
82 | AATTCTTG | 0.207
83 | AGCCAGCT | -0.121
84 | TTACCTAA | 0.248
85 | CGCAAGTC | -0.0637
86 | GAAACTTA | 0.141
87 | AACGACAT | 0.182
88 | ACCCAAAA | 0.0448
89 | CCATGCTA | 0.073
90 | CCGCGCGG | -0.165
91 | ACGATTAG | 0.0305
92 | ACGAACAA | 0.121
93 | AGGCGCGC | -0.0647
94 | ACAGCACA | -0.0201
95 | ATACGGTA | 0.348
96 | GGTAGCAA | 0.241
97 | CACGTGAA | 0.147
98 | GAATGAGA | 0.00563
99 | CAGTATTC | -0.0222
100 | AAGGACGT | -0.0971

Row | Sequence | binding signal [E-score]
101 | ATTCTTCA | 0.0308
102 | AAGTGCGC | 0.0011
103 | AGAATAAG | 0.105
104 | GCCTCACA | -0.117
105 | CTCCAGTA | 0.0749
106 | ACCCAGGC | -0.376
107 | GTTTTGGA | -0.00232
108 | ACATACCG | 0.263
109 | AGTTGCCG | -0.0803
110 | CATTACTA | 0.296
111 | CTGACATA | -0.043
112 | GATTGAGC | 0.0396
113 | CTCGTATA | 0.0688
114 | GTGCGACA | 0.0889
115 | ATGGCTGC | -0.244
116 | CATGGACA | 0.0451
117 | GACACGCA | -0.141
118 | GAGCCCGC | -0.388
119 | AGGCGATG | -0.112
120 | TACCTAAA | 0.37
121 | CTATCCCA | 0.12
122 | CACGTAAA | 0.131
123 | AAGTAGCG | 0.165
124 | GACTGATC | -0.269
125 | AGGAGGCG | -0.322

Row | Sequence | binding signal [E-score]
126 | ATCTTGTG | 0.135
127 | CGGCGCTC | -0.278
128 | GATTAAGA | 0.0426
129 | GGGATTGA | -0.112
130 | GAATAATA | 0.271
131 | CTGGGGGA | -0.481
132 | ACAGGATG | -0.149
133 | ATATACGA | 0.23
134 | TCTGTAAA | 0.165
135 | ACCAGCTA | 0.219
136 | CACACAAG | -0.258
137 | GAATCACC | -0.113
138 | ACGTCCTA | 0.211
139 | ATGTAAAA | 0.295
140 | CGTGATAG | 0.217
141 | ACAAATCC | -0.2
142 | GATGCAGC | -0.132
143 | CCACCGCA | -0.0639
144 | AAAGTTAG | 0.198
145 | GGCGAGTA | 0.133
146 | AGGATAAT | 0.189
147 | CGGCTAAC | -0.106
148 | AAAGTCGT | 0.0806
149 | GTTGTTGA | 0.133
150 | CGTTTACC | -0.0102

Row | Sequence | binding signal [E-score]
151 | GACAACAA | -0.0289
152 | TAGAACGA | 0.121
153 | AGCTTTTC | 0.0662
154 | TCCCTGAA | -0.247
155 | CCACTGGA | -0.14
156 | ATGACACG | -0.146
157 | ACCAAGGG | -0.297
158 | ATGGACAC | 0.0112
159 | GCACCGAA | -0.277
160 | CTTCGCGA | -0.2
161 | GCATACCA | 0.184
162 | CCACAAAC | 0.0384
163 | ATCCAAAG | -0.0521
164 | GTTTGGCA | -0.116
165 | CCTGAAGC | -0.161
166 | TACTACTA | 0.428
167 | GTCGTCGA | -0.0466
168 | CCGCGCGA | -0.164
169 | GCTTGCCA | -0.163
170 | GCAGGTCA | -0.166
171 | GATATTCC | 0.209
172 | AGAGAGAG | -0.164
